The values below come from paper PMC8810914 (Biochemistry, 2021).

Molecules are shown by their SMILES.

The experiment relates to A/Soloman Island/3/2006 (H1N1). The settings on record: read-out: EC50, inhibition of viral replication.

For the compound `C[C@H](N)C12CC3CC(CC(C3)C1)C2` [(S)-rimantadine], the 50% effective concentration (EC50) worked out at 0.0244 µM. Take `C[C@@H](N)C12CC3CC(CC(C3)C1)C2` [(R)-rimantadine]: the EC50 was determined as 0.0196 µM.

A word on the EC50: it is the concentration that produces a half-maximal response.
